In article PMC5892938:
Some of the results follow. At the low end of the ranking the order means little.

biological target: GST-SBP-SLBP (stem-loop binding protein) (UniProt Q14493); assay: targeted RNA Bind-n-Seq; conditions: RBNS binding buffer: 25 mM Tris pH 7.5, 150 mM KCl, 3 mM MgCl2, 0.1% Tween, 0.5 mg/mL BSA, 1 mM DTT; 27 nM protein, 750 pM RNA pool; temperature not stated; high values mean tight binding;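 further: DESeq read counts versus GST-SBP nonspecific binding control pulldown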

Sequence	binding signal (log2 fold change)
GGUCACGUCUCAAUCAACUCAUCCUCCAGGGAAAGCCCUGGUUUUUUCAACAGCUCGCAGUCAAG	-0.00839
GGUCACGUCUCAAUCAACUCAUUCCCCAGGGAAAUCCCUGGCUUUUUCAACAGCUCGCAGUCAAG	0.278
GGUCACGUCUCAAUCAACUCCUUAGAGGGGGGGAAAACCCCUUUGCCCUCAACCUCAACAGCUCGCAGUCAAG	0.282
GGUCACGUCUCAAUCAACUCUCAAGAGGGGGGGAAAACCCCUUUACCCUCCGCAUCAACAGCUCGCAGUCAAG	0.0833
GGUCACGUCUCAAUCAACUCAAUCCCAGGAGUUUCCUCCUGUUUAUUCAACAGCUCGCAGUCAAG	0.0208
GGUCACGUCUCAAUCAACUCUUCUUCCAGGGAAAACCCUGGCUUAUUCAACAGCUCGCAGUCAAG	0.0245
GGUCACGUCUCAAUCAACUCCUAAGAGGGGGGGAAAACCCCUUUGCCCUCCAUAUCAACAGCUCGCAGUCAAG	-0.233
GGUCACGUCUCAAUCAACUCAUCUCCAGGAGUUUCCUCCUGCAUACUCAACAGCUCGCAGUCAAG	0.323
GGUCACGUCUCAAUCAACUCAUCCUCCAGGGAAAGCCCUGGUAUAUUCAACAGCUCGCAGUCAAG	0.0173
GGUCACGUCUCAAUCAACUCUUCCUCAGGAGUUUCCUCCUGCAAACUCAACAGCUCGCAGUCAAG	0.173
GGUCACGUCUCAAUCAACUCUUCCCCCAGGGAAAGCCCUGGCUAACUCAACAGCUCGCAGUCAAG	-0.0482
GGUCACGUCUCAAUCAACUCAACUCCCAGGGAAAACCCUGGUAUUUUCAACAGCUCGCAGUCAAG	-0.0759
GGUCACGUCUCAAUCAACUCUUAAGAGGGGGGGAAAACCCCUUUACCCUCACCGUCAACAGCUCGCAGUCAAG	-0.111
GGUCACGUCUCAAUCAACUCUACUUCAGGAGUUUCCUCCUGUUUACUCAACAGCUCGCAGUCAAG	0.169
GGUCACGUCUCAAUCAACUCAUCCUCCAGGGAAAGCCCUGGCUAACUCAACAGCUCGCAGUCAAG	0.042
GGUCACGUCUCAAUCAACUCUACGCCAGGAGUUUUCUCCUGUUUUCUCAACAGCUCGCAGUCAAG	-0.138
GGUCACGUCUCAAUCAACUCACUAGAGGGGGGGAAAACCCCUUUGCCCUCCAAAUCAACAGCUCGCAGUCAAG	0.0344
GGUCACGUCUCAAUCAACUCUUUUUCAGGAGUUUCCUCCUGUUUUUUCAACAGCUCGCAGUCAAG	0.098
GGUCACGUCUCAAUCAACUCUAUCGAGGGGGGGAAAACCCCUUUACCCUCAAUUUCAACAGCUCGCAGUCAAG	-0.0147

Sequence	binding signal (log2 fold change)
GGUCACGUCUCAAUCAACUCUUUCCCCAGGGAAAGCCCUGGCAUUUUCAACAGCUCGCAGUCAAG	0.178
GGUCACGUCUCAAUCAACUCAUCGUCAGGAGUUUCCUCCUGCUAACUCAACAGCUCGCAGUCAAG	-0.0468
GGUCACGUCUCAAUCAACUCCAACGAGGGGGGGAAAACCCCUUUACCCUCAAUCUCAACAGCUCGCAGUCAAG	-0.24
GGUCACGUCUCAAUCAACUCAUCGUCCAGGGAAAGCCCUGGUUAUCUCAACAGCUCGCAGUCAAG	0.0909
GGUCACGUCUCAAUCAACUCUAACGAGGGGGGGAAAACCCCUUUACCCUCACCAUCAACAGCUCGCAGUCAAG	-0.237
GGUCACGUCUCAAUCAACUCUUCGUCCAGGGAAACCCCUGGUUUAUUCAACAGCUCGCAGUCAAG	-0.315
GGUCACGUCUCAAUCAACUCAACGCCAGGAGUUUCCUCCUGCUAAUUCAACAGCUCGCAGUCAAG	0.0297
GGUCACGUCUCAAUCAACUCUAUCCCAGGAGUUUCCUCCUGCUUAUUCAACAGCUCGCAGUCAAG	0.294
GGUCACGUCUCAAUCAACUCUUACGAGGGGGGGAAAACCCCUUUACCCUCUACAUCAACAGCUCGCAGUCAAG	-0.372
GGUCACGUCUCAAUCAACUCUAUUUCAGGAGUUUACUCCUGCAAUUUCAACAGCUCGCAGUCAAG	0.0985
GGUCACGUCUCAAUCAACUCUUCUUCAGGAGUUUACUCCUGUAUACUCAACAGCUCGCAGUCAAG	0.117
GGUCACGUCUCAAUCAACUCAUUUUCCAGGGAAAGCCCUGGUAUACUCAACAGCUCGCAGUCAAG	-0.0971
GGUCACGUCUCAAUCAACUCACACGAGGGGGGGAAAACCCCUUUACCCUCAGAAUCAACAGCUCGCAGUCAAG	0.0405
GGUCACGUCUCAAUCAACUCAAUUCCAGGAGUUUCCUCCUGCAUACUCAACAGCUCGCAGUCAAG	0.13
GGUCACGUCUCAAUCAACUCUUCGUCCAGGGAAAGCCCUGGCUUUUUCAACAGCUCGCAGUCAAG	-0.0885
GGUCACGUCUCAAUCAACUCCAUCGAGGGGGGGAAAACCCCUUUACCCUCAUUUUCAACAGCUCGCAGUCAAG	-0.135
GGUCACGUCUCAAUCAACUCCAACGAGGGGGGGAAAACCCCUUUACCCUCAUAUUCAACAGCUCGCAGUCAAG	-0.185
GGUCACGUCUCAAUCAACUCUUUCUCAGGAGUUUCCUCCUGUUAAUUCAACAGCUCGCAGUCAAG	-0.215
